Structures can show the parent of a compound that is named as a salt. ± gives the standard deviation of the averaged measurements. In all, about 1,900 compounds were measured (“normalised cell viability (NPI; 0 = phenylarsine oxide control, 1 = DMSO control)”: median about 1, lowest 2% from about 0.039 on). The list shows a part of the results.
System: NCI-H1944
Assay: normalised cell viability (NPI; 0 = phenylarsine oxide control, 1 = DMSO control) (fraction of DMSO control); NCI-H1944 is a non-small cell lung cancer line; higher = more viable cells (less compound toxicity)
Conditions: 6 days
[1] = glucocorticoid arm: hydrocortisone 2.75 uM co-treatment, compound 1 µM
[2] = glucocorticoid arm: hydrocortisone 2.75 uM co-treatment, compound 5 µM
[3] = glucocorticoid arm: hydrocortisone 2.75 uM pre-treated 2 days and continued, compound 1 µM
[4] = glucocorticoid arm: hydrocortisone 2.75 uM pre-treated 2 days and continued, compound 5 µM
[5] = glucocorticoid arm: vehicle, compound 1 µM
[6] = glucocorticoid arm: vehicle, compound 5 µM
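Further: CTB read-out in 384-well plates, mean of triplicate wells, normalised per plate against 1 µM phenylarsine oxide and 0.1% DMSO, compounds added 24 h after seeding.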

SMILES | normalised cell viability [1] | normalised cell viability [2] | normalised cell viability [3] | normalised cell viability [4] | normalised cell viability [5] | normalised cell viability [6]
S=P(N1CC1)(N1CC1)N1CC1 [Thiotepa] | 1.01 ± 0.018 | 1.01 ± 0.037 | 1.01 ± 0.011 | 1.027 ± 0.0058 | 0.996 ± 0.0035 | 0.48 ± 0.032
COc1cc(N2CCC(N3CCN(C)CC3)CC2)ccc1Nc1ncc(Cl)c(Nc2ccccc2S(=O)(=O)C(C)C)n1 | 0.581 ± 0.031 | 0.419 ± 0.031 | 0.667 ± 0.027 | 0.559 ± 0.15 | 0.9333 ± 0.0085 | 0.204 ± 0.014
O=C(NCC1CCCCN1)c1cc(OCC(F)(F)F)ccc1OCC(F)(F)F (centres undefined) [Flecainide acetate salt] | 1.001 ± 0.009 | 1.006 ± 0.0075 | 1.006 ± 0.0063 | 1.02 ± 0.011 | 0.999 ± 0.01 | 1.002 ± 0.0074
CC(C)c1nc(CN(C)C(=O)N[C@H](C(=O)N[C@@H](Cc2ccccc2)C[C@H](O)[C@H](Cc2ccccc2)NC(=O)OCc2cncs2)C(C)C)cs1 [Ritonavir] | 0.978 ± 0.018 | 1.04 ± 0.015 | 1.005 ± 0.0087 | 1.03 | 1.003 ± 0.0061 | 1.007 ± 0.0058
CCCOC(=O)c1c(-c2ccccc2)nc(CC)c(C(=O)SCC)c1CCC | 1.007 ± 0.0058 | 1.02 ± 0.033 | 1.01 ± 0.018 | 1.05 ± 0.078 | 1.001 ± 0.0085 | 1 ± 0.014
COc1ccccc1OCCNCC(O)COc1cccc2[nH]c3ccccc3c12 (centres undefined) [Carvedilol] | 1.023 ± 0.0058 | 1.047 ± 0.0058 | 1.037 ± 0.0058 | 1.03 ± 0.025 | 1.01 ± 0.011 | 1.002 ± 0.0076
Nc1cccc(-c2cc3c(Oc4cccc(O)c4)ncnc3[nH]2)c1 | 0.946 ± 0.004 | 0.728 ± 0.045 | 0.9843 ± 0.004 | 0.853 ± 0.057 | 0.944 ± 0.018 | 0.667 ± 0.015
COc1ccc(CCCOC(Cn2ccnc2)c2ccc(OC)cc2)cc1 (centres undefined) | 1.003 ± 0.0061 | 0.515 ± 0.033 | 0.881 ± 0.22 | 1.04 ± 0.011 | 0.9993 ± 0.0092 | 0.154 ± 0.036
O=c1cc(O)cc(/C=C/c2ccc(O)c(O)c2)o1 [Hispidin] | 1.01 ± 0.011 | 0.9583 ± 0.0068 | 1.017 ± 0.0058 | 0.988 ± 0.0082 | 1.003 ± 0.0058 | 1.01 ± 0.01
CCN1CCC[C@H]1CNC(=O)c1cc(S(N)(=O)=O)ccc1OC [Levosulpiride] | 1.01 ± 0.013 | 0.9997 ± 0.0093 | 1.02 ± 0.011 | 0.998 ± 0.011 | 0.994 ± 0.014 | 1.004 ± 0.0098
CCN1CCC[C@H]1CNC(=O)c1cc(S(N)(=O)=O)ccc1OC [(S)-(-)-Sulpiride] | 1.01 ± 0.01 | 1.01 ± 0.015 | 0.884 ± 0.23 | 1.01 ± 0.01 | 1.023 ± 0.0058 | 1.027 ± 0.0058
N[C@@H](CCC(=O)N[C@@H](CSN=O)C(=O)NCC(=O)O)C(=O)O [S-Nitrosoglutathione] | 1.003 ± 0.0058 | 1.02 ± 0.025 | 1.02 | 1.04 ± 0.064 | 0.9933 ± 0.0035 | 1 ± 0.014
CCCNS(=O)(=O)Nc1ncnc(OCCOc2ncc(Br)cn2)c1-c1ccc(Br)cc1 [Macitentan] | 1.04 ± 0.01 | 1.02 ± 0.015 | 1.023 ± 0.0058 | 1.03 ± 0.017 | 1.007 ± 0.0058 | 1.002 ± 0.0068
CC(CCc1ccc(O)cc1)NCCc1ccc(O)c(O)c1 (centres undefined) [Dobutamine hydrochloride] | 1.013 ± 0.0058 | 0.99 ± 0.02 | 1.002 ± 0.0072 | 0.983 ± 0.008 | 1.002 ± 0.0072 | 1 ± 0.01
CCCCC#Cc1nc(N)c2ncn([C@@H]3O[C@H](C(=O)NCC)[C@@H](O)[C@H]3O)c2n1 | 1.01 ± 0.015 | 0.979 ± 0.011 | 1.007 ± 0.0058 | 1.01 ± 0.014 | 1.01 | 1.003 ± 0.0058
CC1=NN(c2ccc(C(=O)O)cc2)C(=O)C1=Cc1ccc(-c2cc(C)c(C)cc2[N+](=O)[O-])o1 | 0.973 ± 0.023 | 1.043 ± 0.0058 | 0.9843 ± 0.007 | 1.02 ± 0.015 | 1.001 ± 0.0081 | 0.995 ± 0.013
CC(C)(C)C#Cc1cc(N(C(=O)[C@H]2CC[C@H](C)CC2)[C@H]2CC[C@H](O)CC2)c(C(=O)O)s1 | 1.01 ± 0.015 | 1.03 | 1.02 ± 0.018 | 1.04 ± 0.01 | 1.01 | 1.017 ± 0.0058
COc1ccc(-c2cc3c(C)nc(N)nc3n([C@H]3CC[C@H](OCCO)CC3)c2=O)cn1 | 0.483 ± 0.014 | 0.231 ± 0.031 | 0.483 ± 0.024 | 0.307 ± 0.019 | 0.419 ± 0.012 | 0.0512 ± 0.027
O=c1[nH]c(=O)n([C@H]2C[C@H](O)[C@@H](CO)O2)cc1/C=C/Br [(E)-5-(2-Bromovinyl)-2'-deoxyuridine] | 1.013 ± 0.0058 | 1.01 ± 0.01 | 1.003 ± 0.0061 | 1.015 ± 0.0071 | 0.9783 ± 0.0055 | 0.9897 ± 0.0049
Cn1c(=O)c(F)c(Nc2ccc(I)cc2F)c2c(=O)n(C[C@@H](O)CO)cnc21 | 0.641 ± 0.035 | 0.629 ± 0.043 | 0.772 ± 0.028 | 0.757 ± 0.042 | 0.329 ± 0.013 | 0.226 ± 0.025
NC(=O)c1cccnc1 [Nicotinamide] | 1.01 ± 0.014 | 1.02 ± 0.012 | 1.01 ± 0.018 | 1.01 ± 0.018 | 1.006 ± 0.0085 | 1.013 ± 0.0082
NCc1c[nH]c(=S)n1[C@H]1CCc2c(F)cc(F)cc2C1 [Nepicastat (SYN-117) HCl] | 0.9937 ± 0.006 | 1 | 1.01 ± 0.022 | 0.98 ± 0.017 | 0.9937 ± 0.0085 | 0.9913 ± 0.0051
CNC1(C)C2CCC(C2)C1(C)C (centres undefined) [Mecamylamine hydrochloride] | 1.017 ± 0.0058 | 1.02 ± 0.026 | 1.017 ± 0.0058 | 1.07 ± 0.072 | 1.02 | 1.06 ± 0.046
Cc1c(Cn2c(C)nc3c(C(=O)O)cc(N4CCOCC4)cc32)cccc1C(F)(F)F | 0.897 ± 0.019 | 0.803 ± 0.036 | 0.892 ± 0.0085 | 0.874 ± 0.018 | 0.972 ± 0.018 | 0.943 ± 0.013

Source: the supplement of paper PMC8285479
